# According to paper PMC4336329 (PLoS ONE, 2015):
# Hit rate of the full screen: of about 310,000 compounds, about 14,000 (4.5%) showed an effect of 50% or more. Effects have a minus sign here. The list shows a part of the results.
# Biological target: human ether-à-go-go-related gene (hERG) potassium channel (human, UniProt Q12809)
# Test: primary screen, population patch clamp on CHO cells stably expressing hERG
# 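Note: peak tail current of the secondary pulse compared with the same well before compound.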
# Sequence of human ether-à-go-go-related gene (hERG) potassium channel (Q12809 whole entry, looked up): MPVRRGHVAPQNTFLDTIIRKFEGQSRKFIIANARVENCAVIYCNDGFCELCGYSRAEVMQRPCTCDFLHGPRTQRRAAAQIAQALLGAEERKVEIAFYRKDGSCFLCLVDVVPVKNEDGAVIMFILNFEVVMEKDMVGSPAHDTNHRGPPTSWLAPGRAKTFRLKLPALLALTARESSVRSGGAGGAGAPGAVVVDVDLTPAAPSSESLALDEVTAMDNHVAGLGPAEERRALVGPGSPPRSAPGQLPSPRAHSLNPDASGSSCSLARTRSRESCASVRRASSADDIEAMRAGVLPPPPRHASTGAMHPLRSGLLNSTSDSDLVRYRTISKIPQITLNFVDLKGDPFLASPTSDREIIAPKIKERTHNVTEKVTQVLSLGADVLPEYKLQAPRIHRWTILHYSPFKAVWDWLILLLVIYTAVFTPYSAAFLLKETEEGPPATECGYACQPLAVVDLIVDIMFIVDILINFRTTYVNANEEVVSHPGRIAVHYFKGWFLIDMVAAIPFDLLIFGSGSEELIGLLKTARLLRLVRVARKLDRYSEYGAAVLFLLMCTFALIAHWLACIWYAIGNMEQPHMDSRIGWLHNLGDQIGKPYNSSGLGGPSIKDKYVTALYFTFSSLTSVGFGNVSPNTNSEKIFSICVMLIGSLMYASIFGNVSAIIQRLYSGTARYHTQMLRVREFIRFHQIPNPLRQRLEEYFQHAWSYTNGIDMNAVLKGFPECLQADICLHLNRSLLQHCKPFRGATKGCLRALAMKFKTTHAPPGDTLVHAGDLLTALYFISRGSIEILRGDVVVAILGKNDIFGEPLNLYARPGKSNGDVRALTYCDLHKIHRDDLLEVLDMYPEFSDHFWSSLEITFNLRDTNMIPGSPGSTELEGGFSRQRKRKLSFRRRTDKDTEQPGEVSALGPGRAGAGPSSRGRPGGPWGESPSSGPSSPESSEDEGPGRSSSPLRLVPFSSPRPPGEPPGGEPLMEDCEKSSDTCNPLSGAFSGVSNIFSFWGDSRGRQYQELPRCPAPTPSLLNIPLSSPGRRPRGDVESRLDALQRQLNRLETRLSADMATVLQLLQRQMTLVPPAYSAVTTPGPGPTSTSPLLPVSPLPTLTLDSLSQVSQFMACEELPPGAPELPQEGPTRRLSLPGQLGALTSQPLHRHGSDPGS
row,SMILES,"hERG current change (%, negative = inhibition) at 10uM [%]"
1,Cc1ccc(Cl)cc1NS(=O)(=O)c1ccc2oc(=O)ccc2c1,-25.7
2,CC1=CCC[C@@H]2[C@@](C)(CC/C(C)=C/C(=O)O)[C@H](C)CC[C@@]12C,12.6
3,N/C(=N\OC(=O)c1ccccc1)c1ccncc1,2.02
4,COC(=O)C1=CNC=C(C(=O)OC)C1c1ccccc1Cl,6.02
5,COc1ccc(S(=O)(=O)N[C@@H](Cc2ccc(Cl)cc2)C(=O)N2CC[C@@]3(O)CCCC[C@H]3C2)cc1,-13.9
6,Cc1nnc(N/N=C/c2c(O)n(-c3cccc(C(F)(F)F)c3)c(=O)c3ccccc23)[nH]c1=O,8.06
7,O=C(O)CSCC(=O)NCc1ccccc1,10
8,Cc1nc(SCC(=O)N(C)C2CCS(=O)(=O)C2)c(C#N)c(C)c1C (centres unmarked),-21.7
9,CC(C)CNS(=O)(=O)c1ccc(CCC(=O)N2CCCC2)cc1,24.4
10,O=C(c1ccc(Cl)cc1)N1CCN(c2ncccn2)CC1,6.85
11,CC(C)c1ccc(NC(=O)CCS(=O)(=O)c2cccc3nonc23)cc1,1.81
12,COc1cc(CC(NC(C)=O)C(=O)NC2CCN(C(=O)Nc3ccccc3C)CC2)cc(OC)c1 (centres unmarked),-4.6
13,COc1cc(-c2noc(C)c2/C=C/c2ccc(N)cc2)cc(OC)c1OC,-18.5
14,N#CNC1=NCN(Cc2ccccc2)CN1,12.4
15,COc1ccc(-n2c(C)nc3cc(C(=O)N4CCC5(CC4)OCCO5)ccc32)cc1,-19.9
16,CCCSc1nnc(NC(=O)Nc2ccccc2)s1,24.5
17,Cc1ccc(S(=O)(=O)N2CCCCC2)cc1NC(=O)COc1ccccc1F,-4.42
18,CCOC(=O)c1ccc(NC(=O)c2nc[nH]c2C(=O)NCC(=O)OC(C)(C)C)cc1,19.5
19,CCn1c(=S)sc2c(=O)n(CC(=O)Nc3ccccc3OC)c(C)nc21,1.24
20,COc1ccc(/C=C2\C(=O)N(Cc3ccc(F)cc3)CC(=O)N2Cc2ccccc2)cc1,6.75
21,CCc1nnc(NC(=O)c2ccc(-c3ccccc3F)o2)s1,11.2
22,O=C(CN1CCN(Cc2ccccc2F)C1=O)NC1CCCC1,1.87

row,SMILES,"hERG current change (%, negative = inhibition) at 10uM [%]"
1,COc1ccc(N2Nc3n[nH]c(N)c3N2)cc1,-20.4
2,CCCC1OC23CCCCC2C(C#N)(C(=N)O3)C1(C#N)C#N (centres unmarked),3.08
3,CC(=O)c1oc2ccccc2c1N,4.12
4,CC(Oc1ccccc1Cl)C(=O)/C=C/N(C)C (centres unmarked),25.1
5,COc1ccc(Cn2c(=O)c3[nH]cnc3n(-c3ccccc3C)c2=O)cc1,7.7
6,CC1=C(C(=O)Nc2ccccc2)C(c2ccc(O)cc2)N2C(=O)CSC2=N1 (centres unmarked),3.47
7,COC(=O)/C(C#N)=C/c1c(N2CCN(c3ccc(OC)cc3)CC2)nc2c(C)cccn2c1=O,5.47
8,Cc1cc(SCc2cccc(Cl)c2)nc(=O)[nH]1,14.2
9,Cc1ccc(CNC(=O)C2CCC(=O)N(CCc3cccc(F)c3)C2)cc1 (centres unmarked),-38
10,COc1ccc(C(=O)NCC(c2ccco2)N2CCc3ccccc3C2)cc1 (centres unmarked),-22
11,Cc1ccc(NC(=O)CCC(=O)NNC(=O)COc2cccc3ccccc23)c(C)c1,-0.264
12,CCn1c(SCC(=O)NCc2cccs2)nnc1-c1ccncc1,12.6
13,CSCC[C@H](NC(=O)c1ccc(Br)o1)c1nnc2ccccn12,0.496
14,CCOC(=O)c1c(NC(=O)COc2ccccc2C#N)sc2c1CC(C)(C)NC2(C)C,6.9
15,CC1(C(=O)N2CC3(CC(c4cccc(NC(=O)COc5ccc(Cl)cc5)c4)=NO3)C[C@@H]2C(N)=O)CC1 (some centres unmarked),-10.7
16,O=C(Nc1ccc(C(=O)O)cc1)/C(=C\C=C\c1ccccc1)NC(=O)c1ccccc1Cl,3.39
17,O=C(Cn1nc(-c2cccc(Cl)c2)ccc1=O)Nc1cccnc1,-8.01
18,O=C(NCC(c1cccnc1)N1CCOCC1)c1ccco1 (centres unmarked),16.7
19,O=C(NN=C1CCCC1)c1ccccc1O,24.8
20,Cc1cc(C)c(C#N)c(Nc2ccccc2Cl)n1,9.23
21,CC(=O)NC(=S)Nc1ccc2oc(-c3cc(F)c(F)cc3Cl)nc2c1,25.4
22,C/C=C/c1ccc(Oc2nnnn2-c2ccc(C(N)=O)cc2)c(OC)c1,1.17
